In all, about 52,000 compounds went through this assay and about 4,300 (8.3%) were called active. Rule as the data show it: active = survival mostly below about 52% (no sharp cut-off); inactive = mostly above about 56%. The list shows a part of the results.
The molecules below were run on DeltatarO mutant (assay: growth inhibition of S. aureus wild type versus tarO mutant, primary screen, teichoic acid synthesis inhibitors, RN4220, OD600 (AID 463173)). Details: OD600, 18 h, hits give low values, screened at 18.75 µg/mL (by protocol).

Compound	survival
CCn1cc2c(n1)-c1c(oc(C(=O)Nc3ccc(Br)cc3F)c1C)CC2	inactive: 71%
Cc1ccc(N(CC(=O)N2CCN(c3cc(C)ccc3C)CC2)S(=O)(=O)c2c(C)nn(C)c2C)cc1	inactive: 64%
CCOC(=O)c1noc2nc(C)n(CC(=O)Nc3cccc(OC)c3)c(=O)c12	inactive: 108%
Cc1ccc(CN(C(=O)c2ccc(OCC(C)C)cc2)c2ccccn2)o1	inactive: 104%
CCc1ccc(-c2nc(CS(=O)CC(=O)NCCc3ccc(C)cc3)c(C)o2)cc1 (configuration not stated)	inactive: 89%
CCOc1ccc(N(C)C(=O)c2oc(=O)c3ccccc3c2-c2ccccc2)cc1	inactive: 55%
CC(C)c1cnc2c(c1SCC(=O)NC(C)(C)C)c(=O)n(C)c(=O)n2C	inactive: 85%
CCN(CC)C(=O)Cn1c(=O)n(CCCCCC(=O)NCc2ccc3c(c2)OCO3)c(=O)c2sccc21	inactive: 129%
O=c1c2sc3ccccc3c2n(Cc2cccc(F)c2)c(=O)n1CCc1ccccc1	inactive: 77%
CCC(=O)OCc1cc(=O)n2nc(C3CC3)sc2n1	inactive: 94%
Cc1ccc(NC(=O)CN2C(=O)COc3ccc(S(=O)(=O)N4CCCCCC4)cc32)c(C)c1	inactive: 78%
Cc1ccc(CNC(=O)C(=O)Nc2c3c(nn2-c2ccc(F)cc2)CSC3)cc1	inactive: 76%
Cc1ccc(CNC(=O)c2ccc(N3CCCC3)c(NC(=O)Nc3ccc(C)cc3)c2)cc1	inactive: 101%
CCCc1cc(=O)oc2c3c(ccc12)OCN(Cc1ccccc1OC)C3	inactive: 124%
CN(C(=O)Cn1nc(Cc2cccnc2)c2ccccc2c1=O)c1cccc(C(F)(F)F)c1	inactive: 75%
O=C(Cn1c(=O)oc2ccccc21)N1CCCCC1	inactive: 85%
Cn1cnnc1SCC(N)=O	inactive: 99%
COC(=O)COc1ccc(-c2nnc(Nc3ccc(O)cc3)c3ccccc23)cc1	inactive: 186%
Cc1cc(Cl)ccc1-n1c(CCC(=O)O)ccc1-c1cccs1	active: 47%

Compound	survival
CCCCC1CCC(C(=O)N2CC(=O)Nc3ccc(Br)cc3C2c2ccc(F)cc2)CC1 (configuration not stated)	inactive: 55%
CCc1ccc(S(=O)(=O)c2nnn3c2nc(N2CCN(c4ccccc4)CC2)c2cc(Cl)ccc23)cc1	inactive: 105%
CCc1c(C)c2ccc(O)c(CN3CCN(c4cc(Cl)ccc4C)CC3)c2oc1=O	inactive: 54%
Cc1cccc2c1-c1sc(C(=O)Nc3ccc(F)cc3F)cc1CO2	inactive: 85%
COc1ccccc1CCNC(=O)Cc1c(C)c2cc(Cl)c(O)cc2oc1=O	inactive: 58%
CCCCOc1ccccc1C1CC(=O)Nc2ccc3ccccc3c21 (configuration not stated)	inactive: 103%
CC(C)c1ccc(S(=O)(=O)N2CCN(Cc3cccc(F)c3)CC2)cc1	inactive: 128%
CCOc1ccc(CNC(=O)c2oc3c(c2C)-c2nn(Cc4cccc(Cl)c4)cc2CC3)cc1	inactive: 77%
COc1ccc(C)c2sc(NC(=O)c3ccc(S(=O)(=O)N(C)C)cc3)nc12	inactive: 92%
Cc1cc(C)cc(OCC(=O)Nc2cccc3cccnc23)c1	inactive: 73%
CCCc1cnc2c(c1SCC(=O)NCc1ccc(C)cc1)c(=O)n(C)c(=O)n2C	active: -4%
CCCCCCC(=O)Nc1ccc2nc3c(=O)n(C)c(=O)n(C)c3nc2c1C	inactive: 81%
O=C(c1ccc2c(c1)N(Cc1ccc(Cl)cc1)C(=O)c1ccccc1S2(=O)=O)N1CCCC1	inactive: 65%
CCOC(=O)c1ccc(N2C(=O)c3n[nH]c(-c4ccco4)c3C2c2ccc(C(=O)OC)cc2)cc1 (configuration not stated)	inactive: 89%
CCOc1ccc(NS(=O)(=O)c2c(C)nc3sc(C)c(C)n3c2=O)cc1	inactive: 75%
CCOC(=O)C1CCN(C(=O)c2ccccc2NC(=O)c2nsc3ccccc23)CC1	inactive: 128%
CCN1C(=O)c2ccccc2S(=O)(=O)c2ccc(C(=O)NCc3ccccc3)cc21	inactive: 71%
O=C(CSc1ncc(-c2ccccc2)[nH]1)Nc1ccccc1	inactive: 64%
CCOC(=O)C1CCC(CN(Cc2ccc(Cl)cc2)S(=O)(=O)c2cccc(Cl)c2C)CC1 (configuration not stated)	inactive: 87%

Compound	survival
Cc1nc2nc(NC(=O)c3ccc(C(C)(C)C)cc3)[nH]n2c(=O)c1C	inactive: 95%
O=C(CCC1N=C2c3ccccc3N=C(SCC(=O)Nc3cccc(Cl)c3)N2C1=O)NCc1ccco1 (configuration not stated)	inactive: 76%
O=C(Cn1cnc2ccccc2c1=O)NCc1ccccc1	inactive: 82%
O=C(CN1C(=O)C2CCc3[nH]c4ccccc4c3C2C1=O)N1CCCC1 (configuration not stated)	inactive: 86%
CCOc1ccc(-c2cccc(NS(=O)(=O)c3ccc(C)s3)c2)nn1	inactive: 83%
CCOC(=O)C1CCN(C(=O)c2cc3sc(C)cc3n2C)CC1	inactive: 74%
CCCCN(CC)C(=O)CSc1nc2n[nH]c(C)c2c(=N)n1-c1ccc(CC)cc1	inactive: 108%
COc1ccc(NC(=O)CSc2ncc3c(n2)-c2ccccc2N(Cc2ccc(C)cc2)S3(=O)=O)cc1Cl	inactive: 136%
COCCCn1c(=O)c2sccc2n2c(CCCC(=O)NCc3cccc(OC)c3)nnc12	inactive: 84%
Cc1c(CCC(=O)O)c(=O)[nH]c2ccccc12	inactive: 108%
COc1ccc(N=Nc2c(N)n[nH]c2N)cc1	active: 1%
CCn1c(CN2CCOCC2)nc2cc(NC(=O)c3cccc([N+](=O)[O-])c3)ccc21	inactive: 82%
COc1ccc(NC(=O)Cn2cc(C(=O)c3ccccc3OC)c(=O)c3ccc(C)nc32)cc1OC	inactive: 78%
CCOC(Cn1ccc(=O)[nH]c1=O)OCC	inactive: 100%
CCCc1nnc(NC(=O)Nc2ccccc2Cl)s1	inactive: 108%
Cc1nc2nc(C)c(NS(=O)(=O)c3ccc(CC(C)C)cc3)c(=O)n2[nH]1	inactive: 89%
CCOc1ccc(OCC)c(NC(=O)C2CCCN(S(=O)(=O)c3cc(Br)cc4c3N(C(=O)CC)CC4)C2)c1 (configuration not stated)	inactive: 100%
Cc1nn(C(=O)c2c(F)cccc2F)c(C)c1S(=O)(=O)N1CCCCCC1	inactive: 84%
S=C(c1ccncc1)N1CCOCC1	inactive: 74%

Source: PubChem BioAssay AID463173 (ICCB-Longwood Screening Facility, Harvard Medical School, 2010)
